# Screen size: about 280,000 compounds; about 100 (0.036%) were called active. Inconclusive means that the source gave no clear call. Such entries were picked first, then a sample of the others. Calls come from the whole dose curve; as a rule, active = well fitted inhibition curve with a large enough effect in the signal ratio, with a control signal flat (not every such curve was filed as active); inconclusive = small, poorly fitted or top-dose-only effect, or effect the other way, or a change in a side signal; inactive = no such curve, though single readings can be large or run the other way; the % refers to the signal ratio. Potencies beside an inconclusive call are fits to weak or partial responses and may not hold up. “Side channel” marks fits to a control or component signal instead of the main read-out.
# Target: Muscleblind-like protein 1 (Homo sapiens) (UniProt Q9NR56)
# Assay: qHTS Assay for Inhibitors of MBNL1-poly(CUG) RNA binding
# Settings: TR-FRET MBNL1-His/biotin-(CUG)12 binding, 665/545 ratio; activity change, negative = inhibition: at 57.5 µM (top of the series)
# Outline: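 Compound titration spanned 92 nM–58 uM against the MBNL1-His/biotin-(CUG)12 complex. After 60 min at room temperature with 5 nM streptavidin-XL665 and 0.055 ng/ul terbium anti-His, ratiometric 665/545 nm emission (Ex 340 nm) normalized to controls.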
# % is set by controls: 0 for no effect and ±100 for the full control effect; potency is the fitted concentration of half-maximal effect; tags give direction and shape of the fitted curve or compound fluorescence and quenching.
# Chain of UniProt Q9NR56 (Q9NR56 whole entry, looked up): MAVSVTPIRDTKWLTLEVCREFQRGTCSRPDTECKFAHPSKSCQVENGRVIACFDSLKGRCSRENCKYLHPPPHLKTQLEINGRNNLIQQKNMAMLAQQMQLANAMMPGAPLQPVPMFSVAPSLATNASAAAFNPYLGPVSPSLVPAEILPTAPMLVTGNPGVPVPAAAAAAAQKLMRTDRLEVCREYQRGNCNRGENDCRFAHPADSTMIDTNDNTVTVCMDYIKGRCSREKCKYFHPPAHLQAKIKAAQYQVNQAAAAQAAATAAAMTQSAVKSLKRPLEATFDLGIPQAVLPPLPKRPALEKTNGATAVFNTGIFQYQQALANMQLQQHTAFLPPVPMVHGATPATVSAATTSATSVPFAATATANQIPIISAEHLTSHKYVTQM
Compound,"activity change, negative = inhibition",Potency
Cc1ccc(CN2CCN(C/C=C/c3ccc(F)cc3)CC2CCO)o1 (configuration not stated),inactive: -10.4%,–
O=C(Nc1cccc2c1C(=O)NC2=O)c1ccc(N2C(=O)CCC2=O)cc1,–,"inconclusive: 3.16 µM [quencher, side channel, full curve]"
CCOC(=O)c1c(-c2ccccc2)nc2ccccn12,inactive: 4.32%,–
COc1ccc2[nH]c(=O)c(-c3noc(-c4ccc(F)cc4)n3)cc2c1,–,"inconclusive: 7.08 µM [quencher, side channel, single point]"
CCc1ccc(Nc2ccc(C(=O)O)cc2[N+](=O)[O-])cc1,–,"inconclusive: 20 µM [quencher, side channel, partial curve]"
CCn1c(N2CCN(Cc3ccc([N+](=O)[O-])cc3)CC2)nc2ccccc21,–,"inconclusive: 14.1 µM [quencher, side channel, partial curve]"
CN(Cc1ccc(Cl)cc1)C(=O)CCl,inactive: -8.31%,–
Oc1ccccc1N=Cc1c(O)ccc2ccccc12,–,"inconclusive: 14.1 µM [quencher, partial curve]"
O=C(N/N=C/C(Br)=C\c1ccccc1)c1ccco1,–,"inconclusive: 22.4 µM [quencher, side channel, partial curve]"
CCCn1c(C)cc(C(=O)COC(=O)c2nccnc2N)c1C,–,"inconclusive: 28.2 µM [quencher, side channel, single point]"
CCOc1ccc(N=Nc2c(=O)[nH]n3c(=O)cc(C)[nH]c23)cc1,–,"inconclusive: 12.6 µM [quencher, side channel, partial curve]"
CCC1COCCS(=O)(=O)N1Cc1cccc(Cl)c1 (configuration not stated),inactive: -4.85%,–
CCc1ccc(NC(=O)/C(C#N)=C/c2cn(CC(=O)O)c3ccccc23)cc1,–,"inconclusive: 39.8 µM [quencher, single point]"
O=C(NC(=S)Nc1ccc(S(=O)(=O)N2CCCCC2)cc1)c1cccs1,inactive: 17.9%,–
COc1cccc(/C=C2\Oc3cc(OCC(=O)N4CCCC4)ccc3C2=O)c1OC,–,"inconclusive: 14.1 µM [quencher, side channel, partial curve]"
Cc1ccc(C(=O)COC(=O)CN2C(=O)C3C4C=CC(C4)C3C2=O)cc1[N+](=O)[O-] (configuration not stated),–,"inconclusive: 22.4 µM [quencher, side channel, partial curve]"
O=C(CSC(=S)N1CCCC1)NCC(=O)Nc1ccc(F)c(F)c1,–,"inconclusive: 39.8 µM [quencher, side channel, single point]"
CC(=O)c1ccc(OCc2ccc(C(=O)c3ccccc3)cc2)cc1,inactive: -13%,–
CCN(CC)c1ccc(C=C2C(=O)OC3(CCCCC3)OC2=O)cc1,–,"inconclusive: 10 µM [quencher, side channel, partial curve]"
Cc1cc2cc(CNC(=O)CCC(=O)O)ccc2n1C,–,"inconclusive: 15.8 µM [quencher, side channel, partial curve]"
CC1(C)Cc2c(c(=S)nc(-c3ccccc3)n2CCO)CO1,inactive: -1.79%,–

Compound,"activity change, negative = inhibition",Potency
COc1ccc(/C=C/C(=O)N2CCN(C)CC2)cc1S(=O)(=O)N1CCCCC1,–,"inconclusive: 39.8 µM [quencher, side channel, single point]"
Cc1ccnc(NC(=O)/C=C/c2ccccc2[N+](=O)[O-])c1,–,"inconclusive: 15.8 µM [quencher, side channel, partial curve]"
CCn1ncc(CN2CCC(C(=O)Nc3cccc(-c4cccc(F)c4)c3)CC2)c1C,inactive: -0.121%,–
COc1ccccc1-n1c(-c2ccccc2)n[nH]c1=S,inactive: -0.453%,–
C[C@@H]1NC(=O)[C@H](CCC(=O)O)NC(=O)c2cc([N+](=O)[O-])cc(F)c2NCCC[C@@H](C(N)=O)NC1=O,–,"inconclusive: 10 µM [quencher, side channel, partial curve]"
Cc1c(NC(=S)N/N=C/c2ccc(N(C)C)cc2)c(=O)n(-c2ccccc2)n1C,–,"inconclusive: 39.8 µM [quencher, side channel, single point]"
Cc1ccc(-n2c(C)c3c(C)nnc(C)c3c2C)cc1N,–,"inconclusive: 14.1 µM [quencher, side channel, partial curve]"
Cc1ccccc1N1C(=O)c2cccc3cccc(c23)C1=O,–,"inconclusive: 7.94 µM [quencher, side channel, partial curve]"
CC1CC(=O)N(c2ccc(NCc3ccc(Cl)cc3)c([N+](=O)[O-])c2)C1=O (configuration not stated),–,"inconclusive: 11.2 µM [quencher, side channel, partial curve]"
N#Cc1cc2c(nc1SCc1ccncc1)CCC2,–,"inconclusive: 15.8 µM [quencher, side channel, partial curve]"
CC1(C)CC(=O)C(N=Nc2cccc(S(=O)(=O)N3CCOCC3)c2)=C(O)C1,–,"inconclusive: 7.94 µM [quencher, side channel, partial curve]"
C=CCn1c(C)c(C(C)=O)c(N2CCN(c3ccccc3)CC2)nc1=S,inactive: -10.3%,–
Cc1c(Cl)cccc1NS(=O)(=O)c1cccc2nsnc12,–,"inconclusive: 20 µM [quencher, side channel, partial curve]"
O=C(N/N=C\c1ccc(Sc2ccccn2)o1)c1cccc(F)c1,–,"inconclusive: 17.8 µM [quencher, side channel, partial curve]"
O=C(CSc1nc(-c2ccco2)cc(C(F)(F)F)n1)N1CCSCC1,–,"inconclusive: 5.01 µM [quencher, side channel, full curve]"
Cc1cc(C)cc(NC(=S)Nc2ccccn2)c1,inactive: -6.44%,–
COC(=O)CSc1[nH]c2ccc(F)cc2c1[N+](=O)[O-],–,"inconclusive: 14.1 µM [quencher, side channel, partial curve]"
O=C1Nc2ccc(S(=O)(=O)NCC3CCCO3)c3cccc1c23 (configuration not stated),–,"inconclusive: 17.8 µM [quencher, side channel, partial curve]"
NNC(=S)NCc1cccnc1,inactive: -3.58%,–
O=C(Cc1cccs1)N1CCN(c2nc(-c3ccc(Cl)cc3)cs2)CC1,inactive: 10.6%,–
COc1ccc(Nc2cc(C)c3cc([N+](=O)[O-])ccc3n2)cc1,–,"inconclusive: 35.5 µM [quencher, side channel, single point]"

Compound,"activity change, negative = inhibition",Potency
CC1CC(=O)c2c(cc3c(-c4c(O)cc(O)c5c(O)c6c(cc45)OC(C)CC6=O)c(O)cc(O)c3c2O)O1 (configuration not stated),–,"inconclusive: 39.8 µM [quencher, single point]"
COc1cnc(-c2ccccn2)nc1Oc1ccccc1Cl,–,"inconclusive: 5.62 µM [quencher, side channel, single point]"
O=C(c1ccc2nc(-c3ccco3)c(-c3ccco3)nc2c1)N1CCN(c2ncccn2)CC1,–,"inconclusive: 28.2 µM [quencher, side channel, partial curve]"
CCn1c(O)c(N=NC(=O)c2cccs2)c2ccccc21,–,"inconclusive: 17.8 µM [quencher, side channel, partial curve]"
COC(=O)c1c(-c2cccnc2)csc1NC(=O)c1cc(C)on1,inactive: 4.62%,–
O=C(N/N=C/C(Br)=C/c1ccccc1)c1ccc([N+](=O)[O-])cc1,–,"inconclusive: 39.8 µM [quencher, side channel, single point]"
O=C(OCC#CCSc1nnc(-c2ccc([N+](=O)[O-])cc2)o1)c1cccs1,–,"inconclusive: 28.2 µM [quencher, side channel, partial curve]"
CCc1c(C(=O)N/N=C/c2ccco2)nnn1-c1nonc1N,–,"inconclusive: 12.6 µM [quencher, side channel, partial curve]"
O=C(Nc1cccc2ccccc12)C12CC3CC(C1)CC(n1cnc([N+](=O)[O-])n1)(C3)C2,–,"inconclusive: 14.1 µM [quencher, side channel, partial curve]"
O=C(NCc1ccco1)c1cc(-c2cccnc2)nc2ccc(Cl)cc12,–,"inconclusive: 15.8 µM [quencher, side channel, partial curve]"
CNC(=O)NC(=O)C(C)OC(=O)c1cc2c(s1)CCCCC2 (configuration not stated),–,"inconclusive: 3.98 µM [fluorescent, side channel, partial curve]"
O=c1[nH]c(=O)c2nc3ccccc3nc2[nH]1,–,"inconclusive: 3.98 µM [quencher, side channel, partial curve]"
Cc1ccc(C2C3=C(CCCC3=O)OC3=C2C(=O)CCC3)cc1,inactive: -3.48%,–
CN(C)c1ccc(N=Nc2ccccc2C(=O)OCC(=O)Nc2ccccc2C(F)(F)F)cc1,–,"inconclusive: 10 µM [quencher, side channel, partial curve]"
CCOC(=O)CCCCCN1C(=O)c2cccc3cccc(c23)C1=O,–,"inconclusive: 31.6 µM [quencher, single point]"
Nc1c(C(=O)Nc2cccc(C(=O)O)c2)sc2nc3c(cc12)CCCC3,–,"inconclusive: 14.1 µM [quencher, side channel, partial curve]"
O=c1[nH]c(CCl)nc2cc(-c3ccc(F)cc3)sc12,–,"inconclusive: 14.1 µM [quencher, side channel, partial curve]"
Cc1n[nH]c(=O)nc1N/N=C/c1ccco1,–,"inconclusive: 10 µM [quencher, side channel, partial curve]"
COc1ccc(C(=O)Nc2ccc3nc(C)c(C)nc3c2)cc1,–,"inconclusive: 39.8 µM [quencher, side channel, partial curve]"
O=c1cc(-c2ccccc2)[nH]c2nc(Cl)ccc12,–,"inconclusive: 35.5 µM [fluorescent, side channel, single point]"

# Source: PubChem BioAssay AID2675 (National Center for Advancing Translational Sciences (NCATS), 2010)
